Consider three molecules from publication PMC8175399.

Sequences of proteins named here, by UniProt entry; tags and fusion partners are left off.
UniProt P37238: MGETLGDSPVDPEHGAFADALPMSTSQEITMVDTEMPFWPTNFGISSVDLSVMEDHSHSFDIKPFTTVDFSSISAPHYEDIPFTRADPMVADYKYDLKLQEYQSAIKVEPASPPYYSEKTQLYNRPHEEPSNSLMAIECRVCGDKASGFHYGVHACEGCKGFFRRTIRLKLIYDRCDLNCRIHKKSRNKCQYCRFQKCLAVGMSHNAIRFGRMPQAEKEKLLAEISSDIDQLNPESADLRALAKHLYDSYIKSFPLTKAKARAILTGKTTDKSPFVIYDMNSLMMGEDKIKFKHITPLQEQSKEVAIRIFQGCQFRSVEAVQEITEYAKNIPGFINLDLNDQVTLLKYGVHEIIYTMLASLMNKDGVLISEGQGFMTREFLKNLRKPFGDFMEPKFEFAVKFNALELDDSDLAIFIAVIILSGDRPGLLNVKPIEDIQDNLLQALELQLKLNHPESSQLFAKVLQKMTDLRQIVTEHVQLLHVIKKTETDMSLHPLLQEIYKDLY

Holding throughout (assay): co-IP; Dynabeads (sheep anti-mouse or anti-rabbit IgG) loaded with an antibody to one protein or IgG control, incubated overnight at 4 °C with RIPA lysate of mouse neutrophils; the other protein detected by western blotting
Background: In western blotting, separated proteins are transferred to a membrane and probed.

The target of assay [1] is T1, lysosome-associated membrane protein 2 (mouse (endogenous in mouse neutrophils)) (UniProt P17047).
T1 sequence: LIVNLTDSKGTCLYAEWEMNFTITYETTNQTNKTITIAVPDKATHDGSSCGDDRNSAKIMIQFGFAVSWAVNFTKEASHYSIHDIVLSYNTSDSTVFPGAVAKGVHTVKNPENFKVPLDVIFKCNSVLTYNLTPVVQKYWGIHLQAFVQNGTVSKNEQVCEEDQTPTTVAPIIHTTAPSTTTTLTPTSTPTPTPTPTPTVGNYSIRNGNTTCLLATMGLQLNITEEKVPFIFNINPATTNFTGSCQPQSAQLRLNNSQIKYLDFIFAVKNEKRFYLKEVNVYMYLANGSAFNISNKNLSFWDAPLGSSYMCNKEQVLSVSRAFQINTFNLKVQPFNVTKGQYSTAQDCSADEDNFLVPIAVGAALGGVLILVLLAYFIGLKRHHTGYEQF

Assay [2] has as its target T2, perilipin-2 (mouse (endogenous in mouse neutrophils)) (UniProt P43883).
T2 sequence: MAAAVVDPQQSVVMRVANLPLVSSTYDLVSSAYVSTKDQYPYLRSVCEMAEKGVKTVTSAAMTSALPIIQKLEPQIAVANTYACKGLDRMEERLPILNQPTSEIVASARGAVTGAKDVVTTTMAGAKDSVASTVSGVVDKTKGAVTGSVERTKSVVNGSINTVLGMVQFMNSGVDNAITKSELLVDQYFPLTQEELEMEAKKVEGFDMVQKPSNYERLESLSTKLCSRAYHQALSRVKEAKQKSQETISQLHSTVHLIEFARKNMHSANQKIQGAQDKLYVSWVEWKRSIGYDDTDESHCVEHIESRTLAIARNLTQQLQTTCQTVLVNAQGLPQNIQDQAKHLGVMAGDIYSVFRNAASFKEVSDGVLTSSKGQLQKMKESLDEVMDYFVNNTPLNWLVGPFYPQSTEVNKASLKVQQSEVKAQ

Assay [3] has as its target T3, mouse taste receptor type-2 member 138 (mouse (endogenous in mouse neutrophils)) (UniProt Q7TQA6).
T3 sequence: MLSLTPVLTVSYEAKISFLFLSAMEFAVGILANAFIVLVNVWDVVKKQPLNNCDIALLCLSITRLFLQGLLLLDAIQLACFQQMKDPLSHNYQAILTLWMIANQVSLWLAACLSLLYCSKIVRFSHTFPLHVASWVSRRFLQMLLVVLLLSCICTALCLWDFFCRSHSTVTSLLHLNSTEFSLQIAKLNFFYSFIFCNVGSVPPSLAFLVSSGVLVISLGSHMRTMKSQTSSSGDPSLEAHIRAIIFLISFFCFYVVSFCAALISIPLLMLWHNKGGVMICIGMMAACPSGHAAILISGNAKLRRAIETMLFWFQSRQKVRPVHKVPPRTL

In assay [4] the target is peroxisome proliferator-activated receptor gamma (mouse (endogenous in mouse neutrophils)) (UniProt P37238).

Results are given in words; binding and its absence hold for the method and conditions named. In cells and extracts the contact can be indirect. Some entries that bind do so weakly or less than the wild type.

As to “peroxisome proliferator-activated receptor gamma (from UniProt P37238 1-505)”, the binding entry in assay [1] was “no binding”; in assay [2], “binds”; in assay [3], “no binding”.

B1: mouse taste receptor type-2 member 138 (receptor, UniProt Q7TQA6 1-331)
chain: T3 sequence
Take B1: in assay [1], the binding result is reported as “no binding”.

B2: perilipin-2 (protein, UniProt P43883 1-425)
chain: T2 sequence
Regarding B2, the binding result in assay [1] and in assay [4] was “binds” each time.
